# According to the supplement of paper PMC8728848:
# Some of the results follow.
# B1: SP8524D-bot-399-27-399 (Bacteroides ovatus) (protein)
# chain: DAKYDTLDTHAYIEEALSSTSQKVTVQATGESFTTLNVHLSNLSSTDNHYKLVTDQSVLDTYNHINGTGYIMLPKDYYTLPETITVKAGQYAADALSIALKAFSQEMMKSGESYALPVKLVLQDGSISPMENTGTFVILAESIIEFSAPMFVGAPSLKANKFTESPETYSQYTIEVRFQVANTADRDRAVFKNGGDDANFILLRFEDPQSDNENYKAHSLVQIVGRNRLYLNPSNSFKPNEWQHLALVCDGSNYRLYINGVDSGVLSIPTGATTFSDVNWFCLGDDSYSRWGNCKILMSEARIWSVVRSASQIQNNMTQVSPKSVGLEAYWRFNEGQGNVFEDATGKGHTLTTSATPTWIDGILSTDKSTEWK
# Tests used:
# Experiment in all cases: glycan array binding signal (z-score within array); higher = stronger binding
# Settings in all cases: glycan notation: IUPAC condensed, linker removed
# [1] = target: GlcNAc(b1-2)[GlcNAc(b1-4)]Man(a1-3)[GlcNAc(b1-4)][GlcNAc(b1-2)[GlcNAc(b1-6)]Man(a1-6)]Man(b1-4)GlcNAc(b1-4)GlcNAc
# Procedure, shortened: (§1)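 Glycan array data came from 3228 arrays in the Consortium for Functional Glycomics database, and only arrays with an available protein sequence were kept. Glycan names were put into IUPAC-condensed notation, and columns mapping to the same glycan were averaged. The binding signal is a within-array Z-score, averaged across arrays of one protein sequence run at different concentrations or buffers and across linkers. A negative Z-score can be read as non-binding.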
# [2] = target: GlcNAc(b1-2)[GlcNAc(b1-4)]Man(a1-3)[GlcNAc(b1-4)][GlcNAc(b1-2)[GlcNAc(b1-6)]Man(a1-6)]Man(b1-4)GlcNAc(b1-4)[Fuc(a1-6)]GlcNAc
# Procedure, shortened: as §1
# [3] = target: GlcNAc(b1-2)[GlcNAc(b1-6)]Man(a1-6)[GlcNAc(b1-2)Man(a1-3)]Man(b1-4)GlcNAc(b1-4)GlcNAc
# Procedure, shortened: as §1
# [4] = target: GlcNAc(b1-2)[GlcNAc(b1-6)]Man(a1-6)[GlcNAc(b1-2)Man(a1-3)]Man(b1-4)GlcNAc(b1-4)[Fuc(a1-6)]GlcNAc
# Procedure, shortened: as §1
# [5] = target: GlcNAc(b1-2)[GlcNAc(b1-6)]Man(a1-6)[GlcNAc(b1-4)][GlcNAc(b1-2)Man(a1-3)]Man(b1-4)GlcNAc(b1-4)GlcNAc
# Procedure, shortened: as §1
# [6] = target: GlcNAc(b1-3)Fuc
# Procedure, shortened: as §1
# [7] = target: GlcNAc(b1-3)Gal
# Procedure, shortened: as §1
# [8] = target: GlcNAc(b1-3)Gal(b1-3)GalNAc
# Procedure, shortened: as §1
# [9] = target: GlcNAc(b1-3)Gal(b1-4)Glc
# Procedure, shortened: as §1
# [10] = target: GlcNAc(b1-3)Gal(b1-4)GlcNAc
# Procedure, shortened: as §1
# [11] = target: GlcNAc(b1-3)Gal(b1-4)GlcNAc(b1-2)Man(a1-3)[GlcNAc(b1-3)Gal(b1-4)GlcNAc(b1-2)Man(a1-6)]Man(b1-4)GlcNAc(b1-4)GlcNAc
# Procedure, shortened: as §1
# [12] = target: GlcNAc(b1-3)Gal(b1-4)GlcNAc(b1-2)Man(a1-3)[GlcNAc(b1-3)Gal(b1-4)GlcNAc(b1-2)Man(a1-6)]Man(b1-4)GlcNAc(b1-4)[Fuc(a1-6)]GlcNAc
# Procedure, shortened: as §1
# [13] = target: GlcNAc(b1-3)Gal(b1-4)GlcNAc(b1-2)[GlcNAc(b1-3)Gal(b1-4)GlcNAc(b1-6)]Man(a1-6)[GlcNAc(b1-3)Gal(b1-4)GlcNAc(b1-2)Man(a1-3)]Man(b1-4)GlcNAc(b1-4)GlcNAc
# Procedure, shortened: as §1
# [14] = target: GlcNAc(b1-3)Gal(b1-4)GlcNAc(b1-3)Gal(b1-4)GlcNAc
# Procedure, shortened: as §1
# [15] = target: GlcNAc(b1-3)Gal(b1-4)GlcNAc(b1-3)Gal(b1-4)GlcNAc(b1-2)Man(a1-3)[GlcNAc(b1-3)Gal(b1-4)GlcNAc(b1-3)Gal(b1-4)GlcNAc(b1-2)Man(a1-6)]Man(b1-4)GlcNAc(b1-4)GlcNAc
# Procedure, shortened: as §1
# [16] = target: GlcNAc(b1-3)Gal(b1-4)GlcNAc(b1-3)Gal(b1-4)GlcNAc(b1-2)Man(a1-3)[GlcNAc(b1-3)Gal(b1-4)GlcNAc(b1-3)Gal(b1-4)GlcNAc(b1-2)Man(a1-6)]Man(b1-4)GlcNAc(b1-4)[Fuc(a1-6)]GlcNAc
# Procedure, shortened: as §1
# [17] = target: GlcNAc(b1-3)Gal(b1-4)GlcNAc(b1-3)Gal(b1-4)GlcNAc(b1-2)[GlcNAc(b1-3)Gal(b1-4)GlcNAc(b1-3)Gal(b1-4)GlcNAc(b1-6)]Man(a1-6)[GlcNAc(b1-3)Gal(b1-4)GlcNAc(b1-3)Gal(b1-4)GlcNAc(b1-2)Man(a1-3)]Man(b1-4)GlcNAc(b1-4)[Fuc(a1-6)]GlcNAc
# Procedure, shortened: as §1
# [18] = target: GlcNAc(b1-3)Gal(b1-4)GlcNAc(b1-3)Gal(b1-4)GlcNAc(b1-3)Gal(b1-4)GlcNAc(b1-2)Man(a1-3)[GlcNAc(b1-3)Gal(b1-4)GlcNAc(b1-3)Gal(b1-4)GlcNAc(b1-3)Gal(b1-4)GlcNAc(b1-2)Man(a1-6)]Man(b1-4)GlcNAc(b1-4)GlcNAc
# Procedure, shortened: as §1
# [19] = target: GlcNAc(b1-3)Gal(b1-4)GlcNAc(b1-3)Gal(b1-4)GlcNAc(b1-3)Gal(b1-4)GlcNAc(b1-2)Man(a1-3)[GlcNAc(b1-3)Gal(b1-4)GlcNAc(b1-3)Gal(b1-4)GlcNAc(b1-3)Gal(b1-4)GlcNAc(b1-2)Man(a1-6)]Man(b1-4)GlcNAc(b1-4)[Fuc(a1-6)]GlcNAc
# Procedure, shortened: as §1
# [20] = target: GlcNAc(b1-3)Gal(b1-4)GlcNAc(b1-3)Gal(b1-4)GlcNAc(b1-3)Gal(b1-4)GlcNAc(b1-2)[GlcNAc(b1-3)Gal(b1-4)GlcNAc(b1-3)Gal(b1-4)GlcNAc(b1-3)Gal(b1-4)GlcNAc(b1-6)]Man(a1-6)[GlcNAc(b1-3)Gal(b1-4)GlcNAc(b1-3)Gal(b1-4)GlcNAc(b1-3)Gal(b1-4)GlcNAc(b1-2)Man(a1-3)]Man(b1-4)GlcNAc(b1-4)[Fuc(a1-6)]GlcNAc
# Procedure, shortened: as §1
# [21] = target: GlcNAc(b1-3)Gal(b1-4)GlcNAc(b1-3)Gal(b1-4)GlcNAc(b1-3)Gal(b1-4)GlcNAc(b1-3)Gal(b1-4)GlcNAc(b1-2)Man(a1-3)[GlcNAc(b1-3)Gal(b1-4)GlcNAc(b1-3)Gal(b1-4)GlcNAc(b1-3)Gal(b1-4)GlcNAc(b1-3)Gal(b1-4)GlcNAc(b1-2)Man(a1-6)]Man(b1-4)GlcNAc(b1-4)GlcNAc
# Procedure, shortened: as §1
# [22] = target: GlcNAc(b1-3)Gal(b1-4)GlcNAc(b1-3)Gal(b1-4)GlcNAc(b1-3)Gal(b1-4)GlcNAc(b1-3)Gal(b1-4)GlcNAc(b1-2)Man(a1-3)[GlcNAc(b1-3)Gal(b1-4)GlcNAc(b1-3)Gal(b1-4)GlcNAc(b1-3)Gal(b1-4)GlcNAc(b1-3)Gal(b1-4)GlcNAc(b1-2)Man(a1-6)]Man(b1-4)GlcNAc(b1-4)[Fuc(a1-6)]GlcNAc
# Procedure, shortened: as §1
# [23] = target: GlcNAc(b1-3)Gal(b1-4)GlcNAc(b1-3)Gal(b1-4)GlcNAc(b1-3)Gal(b1-4)GlcNAc(b1-3)Gal(b1-4)GlcNAc(b1-2)[GlcNAc(b1-3)Gal(b1-4)GlcNAc(b1-3)Gal(b1-4)GlcNAc(b1-3)Gal(b1-4)GlcNAc(b1-3)Gal(b1-4)GlcNAc(b1-6)]Man(a1-6)[GlcNAc(b1-3)Gal(b1-4)GlcNAc(b1-3)Gal(b1-4)GlcNAc(b1-3)Gal(b1-4)GlcNAc(b1-3)Gal(b1-4)GlcNAc(b1-2)Man(a1-3)]Man(b1-4)GlcNAc(b1-4)[Fuc(a1-6)]GlcNAc
# Procedure, shortened: as §1
binder,measurement,setting,value
B1,glycan array binding signal (z-score),[1],12.1
same,glycan array binding signal (z-score),[2],2.04
same,glycan array binding signal (z-score),[3],-0.45
same,glycan array binding signal (z-score),[4],0.191
same,glycan array binding signal (z-score),[5],-0.44
same,glycan array binding signal (z-score),[6],-0.355
same,glycan array binding signal (z-score),[7],-0.342
same,glycan array binding signal (z-score),[8],-0.242
same,glycan array binding signal (z-score),[9],-0.651
same,glycan array binding signal (z-score),[10],-0.287
same,glycan array binding signal (z-score),[11],-0.285
same,glycan array binding signal (z-score),[12],0.361
same,glycan array binding signal (z-score),[13],0.455
same,glycan array binding signal (z-score),[14],-0.359
same,glycan array binding signal (z-score),[15],0.337
same,glycan array binding signal (z-score),[16],0.563
same,glycan array binding signal (z-score),[17],1.11
same,glycan array binding signal (z-score),[18],-0.027
same,glycan array binding signal (z-score),[19],0.341
same,glycan array binding signal (z-score),[20],0.446
same,glycan array binding signal (z-score),[21],0.241
same,glycan array binding signal (z-score),[22],0.473
same,glycan array binding signal (z-score),[23],0.013
